Assay results from PubChem BioAssay AID1963319 (National Center for Advancing Translational Sciences (NCATS), 2024).
The campaign covered roughly 1,300 compounds. About 120 (9.2%) were called active. Inconclusive means that the source gave no clear call. Such entries were picked first, then a sample of the others. Calls come from the whole dose curve; as a rule, active = well fitted activation curve with a large enough effect; inconclusive = small, poorly fitted or top-dose-only effect; inactive = flat fitted curve, though single readings scatter. Potencies beside an inconclusive call are fits to weak or partial responses and may not hold up.

Each compound was assayed against Luciferin 4-monooxygenase (Photinus pyralis) (UniProt P08659) (assay: Firefly luciferase (FLuc-C-HiBiT) SDR gain of signal screen - plus ATP). Conditions: purified FLuc-C-HiBiT + ATP, HiBiT complementation luminescence; series mostly up to 32.7 µM; activation (gain of signal): at the top concentration.
In short: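 Steps: 10 nM FLuc-C-HiBiT plus 10 uM ATP; pin-transfer compounds and PTC124 control; incubate >30 min RT, light-protected; add Nano-Glo HiBiT reagent; 5-10 min RT; CCD luminescence, 1 sec exposure.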
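Note: signal reports ligand binding via conformational change of the enzyme rather than luciferase catalysis; nearly all actives have a fitted effect of over 55% in size.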
Potency is the fitted concentration of half-maximal effect; tags give direction and shape of the fitted curve.
Throughout, for activation (gain of signal): % of control where 0% means no effect.

Chain of UniProt P08659 (P08659 whole entry, looked up): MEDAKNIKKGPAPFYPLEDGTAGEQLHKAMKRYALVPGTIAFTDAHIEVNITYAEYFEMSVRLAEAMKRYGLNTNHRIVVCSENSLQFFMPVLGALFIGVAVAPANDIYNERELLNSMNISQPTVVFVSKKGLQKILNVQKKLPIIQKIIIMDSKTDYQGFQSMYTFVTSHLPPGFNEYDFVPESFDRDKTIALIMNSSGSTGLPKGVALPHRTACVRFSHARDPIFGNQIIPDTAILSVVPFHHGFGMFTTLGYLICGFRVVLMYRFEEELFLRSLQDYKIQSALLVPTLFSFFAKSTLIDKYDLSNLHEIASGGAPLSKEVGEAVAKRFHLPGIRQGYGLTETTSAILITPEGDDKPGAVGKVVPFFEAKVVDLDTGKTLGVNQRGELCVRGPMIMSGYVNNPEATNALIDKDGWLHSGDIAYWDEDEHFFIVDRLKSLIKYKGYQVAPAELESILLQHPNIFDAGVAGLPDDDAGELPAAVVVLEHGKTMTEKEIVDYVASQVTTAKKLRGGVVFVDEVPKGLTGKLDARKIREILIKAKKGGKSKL

Potency, inconclusive:
Cc1cc(CNC(=O)C2(C(N)=O)CC2)c2[nH]c(-c3ccccc3)c(C)c2c1 8.81 µM [activator, partial curve]
CN(Cc1cnn(C)c1)C(=O)c1csc2nc(-c3ccc(C(F)(F)F)cc3)cn12 14 µM [activator, partial curve]
O=C(CCCc1ccccc1)N1CCC2(CC1)CC(O)CCO2 (centres undefined) 11.1 µM [activator, partial curve]
CN(C)c1cccc(C(=O)Nc2ccc3c(N4CCOCC4)ncnc3c2)c1 11.1 µM [activator, partial curve, poor fit]
Brc1ccc(-c2nc(-c3ccccn3)no2)o1 4.42 µM [activator, partial curve]
CN(C)c1cccc(C(=O)NC2CCN(c3cc(-c4ccc(Cl)cc4)[nH]n3)C2)c1 (centres undefined) 11.1 µM [activator, partial curve]
COc1ccccc1NC(=O)Cn1c(C)ccc(NC(=O)Nc2ccc(C)cc2)c1=O 4.95 µM [activator, partial curve]
O=C(O)c1ccc(-c2nnc3ccc(NC(=O)C4CCC4)cn23)cc1 9.89 µM [activator, partial curve]
CC(NC(=O)C1CCN(C(=O)c2ncn3c2COC(c2ccccc2)C3)CC1)c1ccc(F)cc1 (centres undefined) 5.56 µM [activator, partial curve]
CCn1ncc(NC(=O)Cn2ncc3cc(-c4ccc(N(C)C)cc4)ccc32)n1 14 µM [activator, partial curve]
CCOc1ccc(NC(=O)C2CCN(C(=O)c3ncn4c3COC(c3ccccc3)C4)CC2)cc1 (centres undefined) 3.51 µM [activator, partial curve]
O=C(Nc1ccc(F)c(F)c1)C1CCN(C(=O)c2ncn3c2COC(c2ccc(F)cc2)C3)CC1 (centres undefined) 14 µM [activator, partial curve]

Potency, active:
CC(C)(C)C(=O)Nc1ccc(-c2nc3ccccc3s2)cc1 0.0442 µM

Activation (gain of signal), inactive:
Cn1cc(/C=C2\C(=O)Nc3cccnc32)c2ccccc21 9.64%
CCC(CC)COC(=O)[C@H](C)N[P@](=O)(OC[C@H]1O[C@@](C#N)(c2ccc3c(N)ncnn23)[C@H](O)[C@@H]1O)Oc1ccccc1 4.67%
COc1ccc(-c2cc3c(cn2)CN(Cc2cccnc2)CCN3)cc1OC 17.1% [at 49.3 µM]
CCCCC(=O)Nc1cc(-c2nc3ccccc3s2)ccc1C 10.3%
COc1cccc(-c2ccc(-c3nc(C4CCOC4)no3)o2)c1 (centres undefined) 15%
CN(C1CCc2ccccc2C1)[S+](=O)([O-])c1cccs1 (centres undefined) 6.45% [at 49.3 µM]
